Patent US20240181022A1, “AMURINS LYSINS, AND LYSIN-ANTIMICROBIAL PEPTIDE (AMP) CONSTRUCTS ACTIVE AGAINST GRAM-NEGATIVE BACTERIA” (priority 2021, published 2024)
Some values that stand alone complete this part of the results.

B1: GN370: lysin-AMP construct, SEQ ID NO: 149: MIDR, FIRL and NPTH moieties N-terminal to GN202 lysin (protein)
chain: MIDRFIRLNPTHGPRRPRRPGRRAPVRTSQRGIDLIKSFEGLRLSAYQDSVGVWTIGYGTTRGVTRYMTITVEQAERMLSNDIQRFEPELDRLAKVPLNQNQWDALMSFVYNLGAANLASSTLLDLLNKGDYQGAADQFPHWVNAGGKRLDGLVKRRAAERALFLEPLS
modifications: GN370 lysin

System: P. aeruginosa AR-769
Assay: GN370 in the rabbit pneumonia model
Type: in vivo, New Zealand White rabbits
Conditions: intravenously

| Molecule | Tissue bacterial burden (mean ± SD) (amikacin 4 mg/kg, 3 doses every 8 hours, kidneys) | Tissue bacterial burden (mean ± SD) (amikacin 4 mg/kg, 3 doses every 8 hours, lung #1) | Tissue bacterial burden (mean ± SD) (amikacin 4 mg/kg, 3 doses every 8 hours, lung #2) | Tissue bacterial burden (mean ± SD) (amikacin 4 mg/kg, 3 doses every 8 hours, spleen) | Tissue bacterial burden (mean ± SD) (GN370 3 mg/kg single dose, kidneys) | Tissue bacterial burden (mean ± SD) (GN370 3 mg/kg single dose, lung #1) | Tissue bacterial burden (mean ± SD) (GN370 3 mg/kg single dose, lung #2) | Tissue bacterial burden (mean ± SD) (GN370 3 mg/kg single dose, spleen) | Tissue bacterial burden (mean ± SD) (GN370 10 mg/kg single dose, kidneys) | Tissue bacterial burden (mean ± SD) (GN370 10 mg/kg single dose, lung #1) | Tissue bacterial burden (mean ± SD) (GN370 10 mg/kg single dose, lung #2) | Tissue bacterial burden (mean ± SD) (GN370 10 mg/kg single dose, spleen) |
| --- | --- | --- | --- | --- | --- | --- | --- | --- | --- | --- | --- | --- |
| NCC[C@H](O)C(=O)N[C@@H]1C[C@H](N)[C@@H](O[C@H]2O[C@H](CN)[C@@H](O)[C@H](O)[C@H]2O)[C@H](O)[C@H]1O[C@H]1O[C@H](CO)[C@@H](O)[C@H](N)[C@H]1O [amikacin, reference compound] | 4.82 ± 0.82 Log10 CFU/g | 6.43 ± 1.47 Log10 CFU/g | 6.63 ± 0.91 Log10 CFU/g | 4.63 ± 1.16 Log10 CFU/g | – | – | – | – | – | – | – | – |
| B1 | – | – | – | – | 4.05 ± 0.91 Log10 CFU/g | 6.14 ± 0.99 Log10 CFU/g | 5.60 ± 1.59 Log10 CFU/g | 3.84 ± 0.97 Log10 CFU/g | 4.02 ± 0.90 Log10 CFU/g | 5.74 ± 1.62 Log10 CFU/g | 5.57 ± 1.40 Log10 CFU/g | 3.94 ± 0.86 Log10 CFU/g |
